# According to patent US7652041B2, “Cinnamide and hydrocinnamide derivatives with kinase inhibitory activity” (Millennium Pharmaceuticals, Inc., priority 2005, dated 2010):
# pIC50: −log10 of the molar value.
# System: A375 cells
# Experiment: Phospho-ERK ELISA assay
# Format: cell-based
# Conditions: Homo sapiens, A-375, 3 hours with inhibitor, anti-p44/42MAPK antibody ELISA, normalized for protein content
# Description: Inhibition of Raf kinase activity in whole cell systems can be assessed by determining the decrease in phosphorylation of Raf kinase substrates. Any known Raf kinase substrate can be used to measure inhibition of Raf kinase activity in a whole cell system.
# In a specific example, A375 cells were seeded in a 96-well cell culture plate (12×10^3 cells/100 μL/well) and incubated overnight at 37° C. Medium was removed, and cells were incubated with Raf kinase inhibitors for 3 hours at 37° C. Medium was removed, and cells were fixed with 4% paraformaldehyde for 15 minutes at room temperature.
# Methanol was added for 15 min. Cells were removed and blocked with 10% sheep serum and 1% BSA in PBS overnight at 4° C. Cells were incubated with anti-p44/42MAPK antibody (1:100, Cell Signaling Technologies, #9101L) (20 μL/well) for one hour at room temperature. After washing with PBS three times, cells were stained with anti-rabbit horseradish peroxidase-linked antibody from donkey (1:100, Amersham Bioscience #NA934V) for 1 hour at room temperature. Cells were washed three times with 0.5% Tween-20 in PBS and twice with PBS. 3,3′,5,5′-Tetramethylbenzidine (TMB) liquid substrate system (Sigma, #T8665) (50 μL/well) was added, and cells were incubated for 30-45 minutes at room temperature. Optical density was read at 650 nm. Cells were then washed 3-5 times with PBS to remove color solution. Results were normalized for the protein content in each well using a BCA protein assay kit (Pierce).
row,SMILES,pIC50
1,"O=C(CCc1cccc(Oc2ccnc(C3=NCCN3)c2)c1)Nc1ccc(C(F)(F)F)c(Cl)c1 [Compound A-255, N-[3-chloro-4-(trifluoromethyl)phenyl]-3-(3-{[2-(4,5-dihydro-1H-imidazol-2-yl)pyridin-4-yl]oxy}phenyl)propanamide]",5.00 to 6.00
2,"O=C(CCc1cccc(Oc2ccnc(C3=NCCN3)c2)c1)Nc1cc(F)cc(C(F)(F)F)c1 [Compound A-108, 3-(3-{[2-(4,5-dihydro-1H-imidazol-2-yl)pyridin-4-yl]oxy}phenyl)-N-[3-fluoro-5-(trifluoromethyl)phenyl]propanamide]",5.00 to 6.00
3,"O=C(CCc1cccc(Oc2ccnc(C3=NCCN3)c2)c1)Nc1cc(C(F)(F)F)ccc1Br [Compound A-176, N-[2-bromo-5-(trifluoromethyl)phenyl]-3-(3-{[2-(4,5-dihydro-1H-imidazol-2-yl)pyridin-4-yl]oxy}phenyl)propanamide]",5.00 to 6.00
4,"CN1CCN=C1c1cc(Oc2cccc(CCC(=O)Nc3cccc(C(C)(C)C)c3)c2)ccn1 [Compound A-154, N-(3-tert-butylphenyl)-3-(3-{[2-(1-methyl-4,5-dihydro-1H-imidazol-2-yl)pyridin-4-yl]oxy}phenyl)propanamide]",5.00 to 6.00
5,"C/C(=C\C(=O)Nc1ccc(Cl)c(C(F)(F)F)c1)c1cccc(Oc2ccnc(C3=NCCN3)c2)c1 [Compound B-1, (2E)-N-[4-chloro-3-(trifluoromethyl)phenyl]-3-(3-{[2-(4,5-dihydro-1H-imidazol-2-yl)pyridin-4-yl]oxy}phenyl)but-2-enamide]",4.60 to 5.00
6,"CC(C)(C)c1cccc(NC(=O)/C=C/c2cccc(Oc3ccnc(C4=NCCN4)c3)c2)c1 [Compound B-5, (2E)-N-(3-tert-butylphenyl)-3-(3-{[2-(4,5-dihydro-1H-imidazol-2-yl)pyridin-4-yl]oxy}phenyl)acrylamide]",≥ 6.00
7,"CCNC(=N)c1cc(Oc2ccc(CCC(=O)Nc3ccc(Cl)c(C(F)(F)F)c3)cc2)ccn1 [Compound A-112, N-[4-chloro-3-(trifluoromethyl)phenyl]-3-[4-({2-[(ethylamino)(imino)methyl]pyridin-4-yl}oxy)phenyl]propanamide]",4.60 to 5.00
8,"N#Cc1ccc(NC(=O)CCc2cccc(Oc3ccnc(C4=NCCN4)c3)c2)cc1C(F)(F)F [Compound A-91, N-[4-cyano-3-(trifluoromethyl)phenyl]-3-(3-{[2-(4,5-dihydro-1H-imidazol-2-yl)pyridin-4-yl]oxy}phenyl)propanamide]",5.00 to 6.00
9,"COc1ccc(C(C)(C)C)cc1NC(=O)CCc1cccc(Oc2ccnc(C3=NCCN3)c2)c1 [Compound A-219, N-(5-tert-butyl-2-methoxyphenyl)-3-(3-{[2-(4,5-dihydro-1H-imidazol-2-yl)pyridin-4-yl]oxy}phenyl)propanamide]",≥ 6.00
10,"CNCc1cnc(-c2cc(Oc3cccc(CCC(=O)Nc4ccc(Cl)c(C(F)(F)F)c4)c3)ccn2)[nH]1 [Compound A-109, N-[4-chloro-3-(trifluoromethyl)phenyl]-3-{3-[(2-{5-[(methylamino)methyl]-1H-imidazol-2-yl}pyridin-4-yl)oxy]phenyl}propanamide]",5.00 to 6.00
11,"O=C(CCc1cccc(Oc2ccnc(C3=NCCN3)c2)c1)Nc1ccc(C#CCO)c(C(F)(F)F)c1 [Compound A-63, 3-(3-{[2-(4,5-dihydro-1H-imidazol-2-yl)pyridin-4-yl]oxy}phenyl)-N-[4-(3-hydroxyprop-1-yn-1-yl)-3-(trifluoromethyl)phenyl]propanamide]",5.00 to 6.00
12,"COC(=O)c1cnc(-c2cc(Oc3cccc(CCC(=O)Nc4ccc(Cl)c(C(F)(F)F)c4)c3)ccn2)[nH]1 [Compound A-170, methyl 2-{4-[3-(3-{[4-chloro-3-(trifluoromethyl)phenyl]amino}-3-oxopropyl)phenoxy]pyridin-2-yl}-1H-imidazole-5-carboxylate]",5.00 to 6.00
13,"N=C(N)c1cc(Oc2cccc(CCC(=O)Nc3ccc(Cl)c(C(F)(F)F)c3)c2)ccn1 [Compound A-228, 3-[3-({2-[amino(imino)methyl]pyridin-4-yl}oxy)phenyl]-N-[4-chloro-3-(trifluoromethyl)phenyl]propanamide]",5.00 to 6.00
14,"Cc1cc(NC(=O)CCc2ccc(Oc3ccnc(C4=NCCN4)c3)cc2)ccc1Cl [Compound A-223, N-(4-chloro-3-methylphenyl)-3-(4-{[2-(4,5-dihydro-1H-imidazol-2-yl)pyridin-4-yl]oxy}phenyl)propanamide]",5.00 to 6.00
15,"CN(C)CC#Cc1cc(NC(=O)CCc2cccc(Oc3ccnc(C4=NCCN4)c3)c2)cc(C(F)(F)F)c1 [Compound A-193, 3-(3-{[2-(4,5-dihydro-1H-imidazol-2-yl)pyridin-4-yl]oxy}phenyl)-N-[3-[3-(dimethylamino)prop-1-yn-1-yl]-5-(trifluoromethyl)phenyl]propanamide]",5.00 to 6.00
16,"CNC(=O)c1cc(Oc2cccc(/C=C(\C)C(=O)Nc3cccc(C(C)(C)C)c3)c2)ccn1 [Compound B-6, 4-(3-{(1E)-3-[(3-tert-butylphenyl)amino]-2-methyl-3-oxoprop-1-en-1-yl}phenoxy)-N-methylpyridine-2-carboxamide]",5.00 to 6.00
17,"Cc1cnc(-c2cc(Oc3ccc(CCC(=O)Nc4ccc(Cl)c(C(F)(F)F)c4)cc3)ccn2)[nH]1 [Compound A-232, N-[4-chloro-3-(trifluoromethyl)phenyl]-3-(4-{[2-(5-methyl-1H-imidazol-2-yl)pyridin-4-yl]oxy}phenyl)propanamide]",5.00 to 6.00
18,"O=C(Nc1ccc(Cl)c(C(F)(F)F)c1)/C(F)=C/c1cccc(Oc2ccnc(C3=NCCN3)c2)c1 [Compound B-11, (2Z)-N-[4-chloro-3-(trifluoromethyl)phenyl]-3-(3-{[2-(4,5-dihydro-1H-imidazol-2-yl)pyridin-4-yl]oxy}phenyl)-2-fluoroacrylamide]",≥ 6.00
19,"CC(C)(C)c1ccc(NC(=O)CCc2cccc(Oc3ccnc(C4=NCCN4)c3)c2)cc1 [Compound A-161, N-(4-tert-butylphenyl)-3-(3-{[2-(4,5-dihydro-1H-imidazol-2-yl)pyridin-4-yl]oxy}phenyl)propanamide]",5.00 to 6.00
20,"N=C(NCCN1CCOCC1)c1cc(Oc2ccc(CCC(=O)Nc3ccc(Cl)c(C(F)(F)F)c3)cc2)ccn1 [Compound A-227, N-[4-chloro-3-(trifluoromethyl)phenyl]-3-{4-[(2-{imino[(2-morpholin-4-ylethyl)amino]methyl}pyridin-4-yl)oxy]phenyl}propanamide]",4.60 to 5.00
21,"CN(C)CC#Cc1ccc(NC(=O)CCc2cccc(Oc3ccnc(C4=NCCN4)c3)c2)cc1C(F)(F)F [Compound A-66, 3-(3-{[2-(4,5-dihydro-1H-imidazol-2-yl)pyridin-4-yl]oxy}phenyl)-N-[4-[3-(dimethylamino)prop-1-yn-1-yl]-3-(trifluoromethyl)phenyl]propanamide]",4.60 to 5.00
22,"CNC(=O)c1cc(Oc2ccc(CCC(=O)Nc3ccc(Cl)cc3)cc2)ccn1 [Compound A-11, 4-(4-{3-[(4-chlorophenyl)amino]-3-oxopropyl}phenoxy)-N-methylpyridine-2-carboxamide]",4.60 to 5.00
23,"CN(C)CCOc1cc(NC(=O)CCc2cccc(Oc3ccnc(C4=NCCN4)c3)c2)cc(C(F)(F)F)c1 [Compound A-129, 3-(3-{[2-(4,5-dihydro-1H-imidazol-2-yl)pyridin-4-yl]oxy}phenyl)-N-[3-[2-(dimethylamino)ethoxy]-5-(trifluoromethyl)phenyl]propanamide]",5.00 to 6.00
